Publication PMC4336329 (PLoS ONE, 2015)
Screen size: about 310,000 compounds; about 2,200 (0.71%) showed an effect of 50% or more. The effect is printed as a negative number. Some of the results follow.

target: human ether-à-go-go-related gene (hERG) potassium channel (human, UniProt Q12809); assay: primary screen, population patch clamp on CHO cells stably expressing hERG
Sequence (Q12809 whole entry, looked up): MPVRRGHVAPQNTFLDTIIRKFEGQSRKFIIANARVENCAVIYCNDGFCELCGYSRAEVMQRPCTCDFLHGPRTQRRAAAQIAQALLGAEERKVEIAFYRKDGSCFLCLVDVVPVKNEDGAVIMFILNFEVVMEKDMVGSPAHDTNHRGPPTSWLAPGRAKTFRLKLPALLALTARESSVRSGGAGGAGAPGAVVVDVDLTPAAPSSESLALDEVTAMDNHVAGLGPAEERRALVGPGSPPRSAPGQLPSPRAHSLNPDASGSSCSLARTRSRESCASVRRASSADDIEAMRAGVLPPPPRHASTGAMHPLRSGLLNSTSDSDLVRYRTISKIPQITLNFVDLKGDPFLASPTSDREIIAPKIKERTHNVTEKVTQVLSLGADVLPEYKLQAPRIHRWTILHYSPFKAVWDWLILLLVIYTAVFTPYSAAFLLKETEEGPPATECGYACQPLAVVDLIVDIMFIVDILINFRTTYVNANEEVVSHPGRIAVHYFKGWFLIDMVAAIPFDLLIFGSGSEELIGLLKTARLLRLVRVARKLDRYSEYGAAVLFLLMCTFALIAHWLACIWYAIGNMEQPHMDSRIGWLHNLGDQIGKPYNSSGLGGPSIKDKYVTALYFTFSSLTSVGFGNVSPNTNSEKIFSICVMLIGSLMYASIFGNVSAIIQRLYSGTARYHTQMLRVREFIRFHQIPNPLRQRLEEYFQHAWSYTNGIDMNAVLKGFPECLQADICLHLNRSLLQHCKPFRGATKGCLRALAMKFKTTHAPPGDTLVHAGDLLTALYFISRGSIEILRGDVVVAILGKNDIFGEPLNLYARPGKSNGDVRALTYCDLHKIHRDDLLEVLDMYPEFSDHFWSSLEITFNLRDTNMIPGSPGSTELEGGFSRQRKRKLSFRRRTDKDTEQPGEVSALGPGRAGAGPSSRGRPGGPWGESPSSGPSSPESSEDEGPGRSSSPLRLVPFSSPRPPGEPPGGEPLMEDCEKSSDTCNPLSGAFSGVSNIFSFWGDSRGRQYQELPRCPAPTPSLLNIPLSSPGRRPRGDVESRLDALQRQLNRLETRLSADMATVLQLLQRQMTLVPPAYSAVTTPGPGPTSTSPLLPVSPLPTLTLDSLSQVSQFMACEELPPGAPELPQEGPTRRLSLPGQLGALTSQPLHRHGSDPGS

| SMILES | hERG current change (%, negative = inhibition) at 1uM [%] |
| --- | --- |
| C/C(=N\NC(=O)c1cc(-c2ccc(C)s2)[nH]n1)c1ccco1 | 12.1 |
| Cc1cccc(OCC(=O)Nc2ccc(N3CCN(C(=O)c4ccccc4)CC3)cc2)c1 | -7.92 |
| CCO[C@@H]1OC(C(=O)N2CCN(Cc3ccc4c(c3)OCO4)CC2)=C[C@H](c2ccc(C(F)(F)F)cc2)[C@H]1CCCO | 3.44 |
| CCN1CNC(=S)N(c2ccccc2OC)C1 | 12.4 |
| Cc1ccc(OCC(=O)NCCNC(=O)c2ccco2)cc1 | 13.7 |
| Cc1ccc(N(CC(=O)Nc2ccc(C)cn2)S(=O)(=O)c2c(C)nn(C)c2C)cc1 | -10.6 |
| C[C@@H](NC(=O)c1nc[nH]c1C(=O)NCC(=O)OC(C)(C)C)c1ccccc1 | 5.66 |
| CCN(CC)CCNCc1cc(Br)ccc1OCC(=O)NCc1ccccc1.Cl | -54.6 |
| C(=C\c1ccccc1)/CNCC1CCCO1.Cl (stereo not shown) | 9.08 |
| Cc1cccc(NC(=O)Cc2ccc(NC3=NC4CS(=O)(=O)CC4S3)cc2)c1 (stereo not shown) | 6.46 |
| CCn1c(O)c(N=NC(=O)C(O)c2ccccc2)c2ccccc21 (stereo not shown) | 13.2 |
| COc1ccccc1CNC(=O)c1cccc(S(=O)(=O)N2CCN(C)CC2)c1 | 6.03 |
| Cc1cc(C)c(-n2nnnc2SC(C)C)c(C)c1 | 9.89 |
| Nn1c(N2CCCCC2)nc2ccccc21 | 13.2 |
| COCc1ccc(CN2CCCC(C(=O)Nc3ccc(-c4cccc(OC)c4)cc3)C2)o1 (stereo not shown) | 11.9 |
| COc1ccc(CC(NC(C)=O)C(=O)NC2CCN(c3ncccc3[N+](=O)[O-])CC2)cc1 (stereo not shown) | 7.45 |
| O=c1oc2c(CN3CCOCC3)c(O)ccc2c2c1CCCC2 | 8.08 |
| S=C(NCC1CC1)N/N=C/c1ccccc1Cl | 11.1 |
| COc1ccc([N+](=O)[O-])cc1N(CC(O)Cn1nnc2ccccc21)S(=O)(=O)c1ccc(C)cc1 (stereo not shown) | -9.01 |
| O=C(N/N=C/c1cc([N+](=O)[O-])c(N2CCOCC2)cc1N1CCOCC1)c1cccnc1 | 3.13 |

| SMILES | hERG current change (%, negative = inhibition) at 1uM [%] |
| --- | --- |
| Cc1ccc(NC(=O)c2sc(Cl)nc2-c2ccccc2)cc1 | 23.3 |
| CC(=O)N1N=C(c2cccc([N+](=O)[O-])c2)OC1c1ccccc1Cl (stereo not shown) | -1.41 |
| COc1ccc(Cl)cc1NC(=S)NCc1cccs1 | 8.06 |
| Cc1ccc(/C=C2\SC(=S)N(CCC(=O)N3CCOCC3)C2=O)cc1 | 14.1 |
| O=C(CNC(=O)c1ccco1)NCC(=O)OCc1cccc(C(=O)Oc2ccccc2)c1 | -2.38 |
| CCC(C)NC(=O)Cn1nc([N+](=O)[O-])c(Cl)c1C (stereo not shown) | 6.24 |
| CCOc1ccc2nc(NC(=O)Cn3[nH]c(=O)c4ccccc4c3=O)sc2c1 | 13.2 |
| CCCc1nc2ccccc2c(NC(=O)CN(CC)CC)c1CC.O=C(O)C(=O)O | 12.5 |
| Cc1cc(O)c(/C=N/c2ccccn2)c(=O)o1 | 5.79 |
| O=C(NCC(c1ccco1)N1CCCCC1)c1ccc(S(=O)(=O)Nc2ccccc2)cc1 (stereo not shown) | 1.8 |
| COc1ccc(-c2csc(NC(=O)C3CC(=O)N(c4ccc5c(c4)OCCO5)C3)n2)cc1 (stereo not shown) | 3.07 |
| COCCC(=O)NC12CC3CC(CC(C3)C1)C2 | 8.9 |
| COc1ccc(C(=O)Nc2ccncc2)cc1OC | 4.34 |
| O=C(O)CCC(=O)N1N=C(c2ccc(Br)cc2)CC1c1cccs1 (stereo not shown) | 9.3 |
| c1ccc(-c2ccc(-c3nc(-c4cccnc4)no3)cc2)cc1 | 20.3 |
| COc1ccccc1C(=O)Nn1cnnc1 | 12.4 |
| Cc1nn2c(N3CCN(C)CC3)cc(C(C)(C)C)nc2c1-c1ccccc1 | 10.9 |
| COc1ccc(-c2[nH]ncc2CN(C)Cc2cccnc2)c(OC)c1 | 0.157 |
| CCCCOc1ccc(C(=O)NCC(=O)NCc2ccncc2)cc1 | 7.49 |
| Cc1ccc(-n2cnc3sc(C)c(C)c3c2=O)cc1 | 1.2 |

| SMILES | hERG current change (%, negative = inhibition) at 1uM [%] |
| --- | --- |
| c1nnc(-c2ccc3c(c2)OCO3)o1 | 3.31 |
| CCc1ccccc1NC(=O)Cc1ccc(-n2cccc2)cc1 | 7.59 |
| C#CC[N+]1(CC#Cc2ccccc2)CCCC1.[I-] | 13.5 |
| CC(=O)Nc1cc2c(cc1C(=O)c1ccc(C)cc1)OCCO2 | 9.13 |
| Cc1nc2ccccn2c1-c1csc(Nc2cccc(C(=O)O)c2)n1 | 7.86 |
| Cc1ccccc1NC(=O)/C(C#N)=C\c1cccnc1 | 2.75 |
| CN(C)C(CNC1CC(C)(C)NC(C)(C)C1)c1cccc(F)c1 (stereo not shown) | 16.8 |
| O=C(O)c1ccc(NCc2ccc3c(c2)OCO3)cc1 | 10.6 |
| O=C(Nc1ccc(Cl)cc1)c1ccc(CN2CCc3ccccc3C2)cc1 | 20.3 |
| C#CCC(NC(=O)c1ccc(C(F)(F)F)cc1)C(=O)NCCC (stereo not shown) | 16.3 |
| COc1ccc(C(=O)/C=C/c2ccccc2C(F)(F)F)cc1 | 13.1 |
| COC(=O)C(Cc1c[nH]c2ccccc12)NC(=O)CNC(C)=O (stereo not shown) | 4.2 |
| O=C(OCC(=O)N1CCN(C(=O)c2ccco2)CC1)c1sc2cc(F)ccc2c1Cl | 6.48 |
| CN(C)c1ccnc(Nc2ccc(F)cc2)c1C#N | 10.2 |
| COc1cccc(-n2c(O)c(C=NCCN3CCOCC3)c(=O)[nH]c2=O)c1 | 5.91 |
| CC1(C)Cc2c(c(N3CCOCC3)nc3sc4c(NCC5CCCO5)nnnc4c23)CS1 (stereo not shown) | 10.7 |
| Cc1[nH]n(-c2ccccc2)c(=O)c1/C=N/N1CCOCC1 | 4.84 |
| CC(C)=CC/C=C1\CCC(C(=O)O)C(C(=O)O)C1 (stereo not shown) | 14.9 |
